Measured values taken from the supplement of paper PMC12217912.
This is one part of the list. Sequences were assembled here from the parent chain. Inactive controls read about 0.05.

B1: TEV protease; numbered along this chain (parent)
chain: MGESLFKGPRDYNPISSSICHLTNESDGHTTSLYGIGFGPFIITNKHLFRRNNGTLVVQSLHGVFKVKDTTTLQQHLVDGRDMIIIRMPKDFPPFPQKLKFREPQREERICLVTTNFQTKSMSSMVSDTSCTFPSGDGIFWKHWIQTKDGQCGSPLVSTRDGFIVGIHSASNFTNTNNYFTSVPKNFMELLTNQEAQQWVSGWRLNADSVLWGGHKVFMVKPEEPFQPVKEATQL

Variants of: B1
Test: raw area under fraction-flipped curve 0-4 h after induction (AUC4h, not background-subtracted), DNA-recorder readout of cleavage of the substrate (dimensionless); higher = more cleavage of the substrate by the protease variant
Details: temperature: 34 °C; time window: 0-4 h after rhamnose induction
Experimental: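 In vivo DNA recorder in E. coli TOP10(DE3) ΔrhaA at 34 °C. Each TEVp single-site mutant (parent TEVp 0) is paired with a single-site variant of the 7-mer TEVs (canonical ENLYFQ|S). The substrate sits between flexible linkers in a Bxb1-sfGFP-TEVs-SsrA fusion, so cleavage stabilises Bxb1 and speeds flipping of a recombination array, read by NGS. The value is the raw area under the fraction-flipped curve over 0-4 h after rhamnose induction (AUC4h), with ≥20 reads per time point. It is not background-subtracted; inactive controls average about 0.047.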
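Note: Bxb1 expression induced with 0.2% (w/v) L-rhamnose at OD600 near 0.5, cultures sampled hourly, flipped fraction per protease–substrate barcode pair counted by paired-end Illumina sequencing.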

Row | Variant | area with substrate ENAYFQS | area with substrate ENCYFQS | area with substrate ENDYFQS | area with substrate ENEYFQS | area with substrate ENFYFQS | area with substrate ENGYFQS | area with substrate ENHYFQS | area with substrate ENIYFQS | area with substrate ENKYFQS | area with substrate ENMYFQS | area with substrate ENNYFQS | area with substrate ENPYFQS | area with substrate ENQYFQS | area with substrate ENRYFQS | area with substrate ENSYFQS | area with substrate ENTYFQS | area with substrate ENVYFQS | area with substrate ENWYFQS | area with substrate ENYYFQS
1 | I43S | 0.0571 | 0.0506 | 0.0465 | 0.0416 | 0.0499 | 0.0415 | 0.0363 | 0.0543 | 0.0492 | 0.0139 | 0.0475 | 0.0451 | 0.057 | 0.0543 | 0.0554 | 0.0598 | 0.053 | 0.0461 | 0.0426
2 | T44P | 0.0526 | 0.0452 | 0.0447 | 0.044 |  |  | 0.0402 | 0.046 |  | 0.0453 | 0.0496 |  | 0.026 | 0.0655 | 0.0436 | 0.0319 | 0.0387 |  | 0.0319
3 | T44S | 0.053 | 0.0754 | 0.0583 | 0.0535 | 0.052 | 0.0558 | 0.0734 | 0.102 | 0.0604 | 0.0648 |  | 0.055 | 0.0471 | 0.0573 | 0.0615 | 0.0594 | 0.0954 |  | 
4 | N45T | 0.0571 | 0.0741 | 0.0693 | 0.0587 | 0.0589 | 0.0643 | 0.0655 |  | 0.0351 | 0.0511 | 0.0669 | 0.06 | 0.0564 | 0.0584 | 0.0494 | 0.0626 | 0.0555 |  | 
5 | K46A | 0.0556 | 0.0978 | 0.069 | 0.0627 | 0.0568 | 0.0568 | 0.062 | 0.151 |  | 0.0865 | 0.0492 |  | 0.0631 | 0.0604 | 0.0627 | 0.0637 | 0.0916 |  | 0.0594
6 | K46C | 0.0568 | 0.0627 | 0.0162 | 0.0627 | 0.0456 | 0.06 |  | 0.121 | 0.0689 | 0.0639 | 0.0692 | 0.0528 |  | 0.032 | 0.0337 | 0.0516 | 0.0639 | 0.0601 | 
7 | K46M | 0.0581 | 0.0632 | 0.0543 | 0.0524 |  |  | 0.063 | 0.0733 | 0.0682 |  |  | 0.0551 | 0.0549 | 0.0577 | 0.0524 | 0.054 | 0.0549 |  | 0.0739
8 | H47C | 0.0533 | 0.0599 | 0.0649 | 0.0701 | 0.0714 | 0.061 | 0.0663 |  | 0.0542 | 0.0689 |  | 0.0518 | 0.0525 |  | 0.0651 |  |  | 0.0551 | 
9 | H47E | 0.0533 | 0.0625 | 0.0569 | 0.0509 | 0.0604 | 0.0696 |  | 0.0637 |  | 0.0585 | 0.0622 | 0.0739 | 0.0607 | 0.0615 | 0.0582 | 0.0617 | 0.0736 | 0.0403 | 0.0628
10 | F49A | 0.0718 |  | 0.062 | 0.041 | 0.0683 | 0.0723 | 0.0514 | 0.0624 |  | 0.0575 | 0.0562 |  | 0.045 |  | 0.0576 | 0.0554 | 0.0634 | 0.0252 | 0.0556
11 | F49I | 0.0698 | 0.0621 | 0.0582 | 0.0613 | 0.0206 |  | 0.0571 | 0.0662 | 0.0672 | 0.0667 | 0.0644 | 0.0341 | 0.0622 | 0.0582 | 0.0635 | 0.0578 | 0.051 |  | 
12 | F49M | 0.0624 | 0.0647 | 0.0606 | 0.0594 | 0.0627 | 0.0561 | 0.0531 | 0.0658 | 0.0692 |  | 0.0787 | 0.0538 | 0.0552 | 0.0596 | 0.0603 | 0.0549 | 0.0553 | 0.0406 | 
13 | R50H | 0.0677 | 0.066 | 0.0812 | 0.0609 | 0.0541 | 0.0597 | 0.0368 |  |  |  | 0.0523 |  |  | 0.0649 | 0.0683 | 0.0549 | 0.0833 | 0.0069 | 0.0613
14 | R50K | 0.0766 | 0.0939 | 0.06 | 0.0617 | 0.0702 |  |  | 0.0881 | 0.0579 | 0.0594 | 0.0735 |  | 0.0645 | 0.0479 | 0.0558 | 0.065 |  | 0.0064 | 0.0665
15 | R50P | 0.0571 | 0.0665 | 0.063 | 0.0643 | 0.0393 | 0.0585 |  | 0.0987 | 0.0597 |  | 0.0588 | 0.0495 | 0.0574 | 0.0616 | 0.0591 | 0.0631 | 0.0662 |  | 0.0538
16 | N52C | 0.0948 | 0.0608 | 0.0639 | 0.0549 | 0.0674 | 0.0612 | 0.0674 | 0.054 | 0.0569 | 0.0662 |  | 0.0762 | 0.0618 | 0.0658 | 0.0637 | 0.0567 | 0.0502 | 0.0036 | 
17 | N52P | 0.0635 | 0.0547 | 0.0666 | 0.0743 |  | 0.0595 | 0.0449 |  |  |  | 0.0449 | 0.06 |  | 0.0619 | 0.0619 |  | 0.0572 |  | 0.0493
18 | N52V | 0.0543 | 0.0421 | 0.0609 | 0.0572 | 0.0544 |  | 0.0624 | 0.073 | 0.0556 | 0.0736 |  | 0.0586 | 0.0573 | 0.0574 | 0.0593 |  | 0.0589 |  | 0.059
19 | N53C | 0.0381 | 0.0577 |  | 0.0588 | 0.0605 | 0.0517 | 0.0811 | 0.148 | 0.0612 |  |  | 0.0635 | 0.0669 | 0.059 | 0.0662 |  | 0.0711 | 0.0674 | 
20 | N53M | 0.0561 | 0.061 | 0.0528 | 0.0622 | 0.0551 |  |  | 0.0696 | 0.0467 | 0.0628 |  |  | 0.0657 | 0.0794 | 0.0643 | 0.048 |  | 0.141 | 
21 | N53S | 0.053 | 0.0639 | 0.0669 | 0.0674 | 0.0447 |  | 0.0557 | 0.109 | 0.0564 |  | 0.0536 | 0.0427 | 0.0473 | 0.0466 | 0.0525 | 0.0739 | 0.0741 | 0.0644 | 
22 | N53V | 0.0487 | 0.0588 | 0.0533 | 0.0555 |  |  |  |  |  | 0.0705 |  | 0.0616 | 0.0607 | 0.0555 | 0.0521 | 0.0629 | 0.0543 | 0.0548 | 
23 | T55S | 0.0584 | 0.0697 | 0.0731 | 0.118 | 0.0653 |  |  |  | 0.0434 |  | 0.0578 | 0.0604 | 0.0581 | 0.0437 | 0.0479 | 0.0719 | 0.0566 |  | 0.0442
